Paper PMC6919601, “Identification of Plasmodium dipeptidyl aminopeptidase allosteric inhibitors by high throughput screening” (PLoS ONE, 2019)
The campaign covered roughly 110,000 compounds. About 230 (0.21%) showed an effect of 50% or more. This is one part of the list.

Biological target: DPAP1 (Plasmodium falciparum, UniProt Q8IIJ9)
Assay: primary screen, percent inhibition; read by cleavage of a fluorogenic dipeptide substrate; higher = more effect of the substance
Set-up: species or system P. falciparum D10 trophozoite lysates; single well
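Note: 30 min substrate incubation versus DMSO and 10 µM JCP410 controls.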

Chain of DPAP1 (Q8IIJ9 whole entry, looked up): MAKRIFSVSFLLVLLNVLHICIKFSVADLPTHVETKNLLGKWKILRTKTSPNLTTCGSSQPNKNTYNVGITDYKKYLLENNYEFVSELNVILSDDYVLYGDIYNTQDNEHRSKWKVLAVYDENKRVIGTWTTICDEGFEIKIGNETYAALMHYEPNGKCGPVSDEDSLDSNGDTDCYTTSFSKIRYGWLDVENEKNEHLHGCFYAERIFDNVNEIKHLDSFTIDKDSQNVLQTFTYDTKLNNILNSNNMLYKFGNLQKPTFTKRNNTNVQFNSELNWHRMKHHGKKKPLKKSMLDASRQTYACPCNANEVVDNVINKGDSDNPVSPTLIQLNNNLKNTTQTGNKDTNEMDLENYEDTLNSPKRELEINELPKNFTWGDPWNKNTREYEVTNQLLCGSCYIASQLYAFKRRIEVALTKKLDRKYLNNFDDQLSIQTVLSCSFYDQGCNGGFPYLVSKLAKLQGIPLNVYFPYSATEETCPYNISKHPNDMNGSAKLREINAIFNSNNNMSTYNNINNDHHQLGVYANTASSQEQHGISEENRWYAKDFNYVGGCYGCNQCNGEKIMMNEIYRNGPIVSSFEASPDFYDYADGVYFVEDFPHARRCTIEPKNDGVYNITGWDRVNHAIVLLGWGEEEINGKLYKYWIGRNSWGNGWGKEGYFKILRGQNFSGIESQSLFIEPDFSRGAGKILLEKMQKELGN

Structure (SMILES) | % Inhibition @ 10 uM
COc1cccc(C2=Nc3c(c(=O)[nH]c(=O)n3-c3ccccc3)C(C(F)(F)F)(C(F)(F)F)N2)c1 | 0.26%
COc1ccc(/C=C2/NC(=O)N(CC(=O)Nc3ccc(C)cc3)C2=O)cc1OC | -5.35%
COc1ccc(-c2cc(C(F)F)n3ncc(C(=O)Nc4ccc(OC)cc4C)c3n2)cc1 | -5.71%
CC(=O)c1c(O)cc(C)o/c1=N\c1ccc(Oc2ccccc2)cc1 | 1.01%
CCN(CC)c1ccc(NC(=O)c2cccnc2Cl)cc1 | 2.06%
CC(C(=O)NCc1ccco1)n1sc2ccccc2c1=O (centres unmarked) | -1.49%
COc1ccc(CCNC(=O)CSc2nnc(-c3sc4ccccc4c3Cl)o2)cc1OC | 1.31%
Cc1ccccc1OC(C)C(=O)Nc1ccc(Cl)cc1 (centres unmarked) | 0.795%
CCOc1ccc(S(=O)(=O)Nc2ccccc2C(=O)NC(C)CC)cc1 (centres unmarked) | -1.02%
CC(CCN1CCN(C=O)CC1)c1ccccc1 (centres unmarked) | 1.9%
NS(=O)(=O)c1cc([N+](=O)[O-])c(O)c2ccccc12 | -4.35%
O=C(CN1C(=O)S/C(=C/c2cccnc2)C1=O)N1CCOCC1 | 3.99%
CCc1ccc(Cc2cnc(NC(=O)C3Cc4ccc(C)cc4C(=O)O3)s2)cc1 (centres unmarked) | 3.54%
O=C(Cn1ncn2c(cc3ccccc32)c1=O)NCCc1ccc(Cl)cc1 | 3.29%
COc1cccc(C(=O)N2CCN(C(=O)c3ccc(F)cc3)CC2)c1 | 1.01%
CC1(C)CC(=O)C(C(c2cc3c(cc2Br)OCO3)C2C(=O)CC(C)(C)CC2=O)C(=O)C1 | 1.4%
O=C(CN1C(=O)CSc2ncccc21)NCCCc1ccccc1 | 1.03%
CSc1nc(Oc2cc(C)cc(C)c2)cc(-n2nc(C)c(C#N)c2N)n1 | 0.674%
CCN(CC)C(=O)c1ccc(/N=C/c2c(C)nn(-c3ccc(C)cc3)c2O)cc1 | 2.69%
O=C1OC(c2ccc(-c3ccccc3)cc2)=N/C1=C\c1cccs1 | -1.33%
Cc1ccccc1-n1nnc(-c2nc(-c3ccccc3)no2)c1N | 0.868%
CS(=O)(=O)N(CC(=O)NC1CCCCCC1)c1cccc(F)c1 | 4.06%
COc1ccccc1-n1nc(C)cc1N | 2.57%
COc1ccc(-c2noc(CNC(=O)Cc3ccc(-c4ccccc4)cc3)n2)cc1 | 0.486%
Cc1ccc(OCC(=O)Nc2nonc2NC(=O)COc2ccc(C)cc2C)c(C)c1 | -1.11%
COc1ccc(C2=NOC(C(=O)NC(C)(C)C)C2)cc1 (centres unmarked) | -1.7%

Structure (SMILES) | % Inhibition @ 10 uM
O=S(=O)(NCCc1c[nH]c2ccccc12)c1ccc(S(=O)(=O)N2CCOCC2)cc1 | 0.503%
COc1cc(NC(=O)c2ccc(N(C)C)cc2)c(OC)cc1NC(=O)c1ccc(N(C)C)cc1 | 1.15%
Cc1ccc(OCC(=O)Nc2cccc(Cl)c2C)cc1 | -3.52%
Cn1cnc2c1c(=O)n(CCn1c(=O)c3c(ncn3C)n(C)c1=O)c(=O)n2C | 3.54%
O=C(NCCCN1CCCC1=O)C1CCN(C(=O)c2cnn(-c3ccccc3)c2-n2cccc2)CC1 | 3.4%
CC(=O)Nc1ccc(NC(=O)CN(c2cccc(C(F)(F)F)c2)S(=O)(=O)c2ccccc2)cc1 | 12.7%
COC(=O)c1cc2ccsc2n1Cc1cccc(OC)c1 | -6.24%
O=C1c2ccccc2C(=O)N1c1cc(Cl)cc(Cl)c1 | -4.08%
Cc1onc(-c2ccccc2)c1C(=O)Nc1cc(Cl)cc(Cl)c1 | -3.97%
COCCNC(=O)c1noc2c1COc1ccccc1-2 | 60%
COc1ccc(NC(=O)CCCCCN2C(=O)c3ccccc3C2=O)c2ccccc12 | -4.33%
Cc1cc(NC(=O)CC(CN(C)S(=O)(=O)c2ccc(Br)cc2)c2ccccc2)no1 (centres unmarked) | -0.834%
CC1(O)CCCCC1(C)S(=O)(=O)c1ccccc1 (centres unmarked) | 7%
Cc1ccc(Cl)cc1-n1c(C)cc(/C=C2/C(=N)N3C(=NC2=O)SN=C3S(C)(=O)=O)c1C | 1.85%
Cc1ccc(-c2cc(C(F)F)n3ncc(C(=O)n4c(C)nc5ccccc54)c3n2)cc1 | 50%
O=C(c1ccc(Br)o1)N1CCCCCC1 | 0.986%
CC(C)(C)c1ccc(OCCCCN2CCCC2)cc1 | -5.84%
O=C(O)c1ccc(CN2CCSCC2)cc1 | 4.04%
CC1CCCCN1CCCNC(=O)c1cc2c(s1)-c1ccccc1SC2 (centres unmarked) | -2.16%
CCOc1ccc(NC(=O)CCCc2ccc(OC)cc2)cc1 | 2.36%
CNC(=S)NCCc1c[nH]c2ccc(OC)cc12 | 4.55%
O=C(Nc1ccc(Cl)cc1)N1CC=CCC1 | 1.29%
CCc1ccccc1NC(=O)CN(c1ccccc1OC)S(=O)(=O)c1ccccc1 | -3.78%
CC1CCCCC1NC(=O)CCn1nc(-c2ccccc2)ccc1=O (centres unmarked) | -1.79%
CCOc1ccccc1CNC(=O)CCCN1C(=O)CSc2ncccc21 | -1.6%
NCCC12CC3CC(C1)CC(C(=O)O)(C3)C2 | -0.807%

Structure (SMILES) | % Inhibition @ 10 uM
O=C(c1cnn2c1NC(c1ccc(Br)cc1)CC2C(F)(F)F)N1CCN2CCCC2C1 (centres unmarked) | 0.76%
CSc1nc(O)c2c(n1)N=C1CCCC(O)=C1C2c1cccs1 (centres unmarked) | -8.38%
COc1ccc(C(=O)Nc2ccc(NC(C)=O)cc2)cc1OC | -2.85%
C=CCNC(=O)COCc1cc(-c2ccc3c(c2)OCO3)on1 | -3.81%
COc1ccc(NC(=O)/C(=C/c2ccccc2)NC(=O)c2ccc(Br)o2)cc1 | -4.49%
Cc1ccc(-c2cc(-c3ccccc3)nc(N3CCNCC3)n2)cc1 | 7.4%
CN(C)CCCn1c(=O)n(C)c(=O)c2[nH]cnc21 | -1.22%
O=C(Nc1cccnc1)c1ccc2ccccc2c1O | 7.51%
O=S(=O)(c1ccc(-c2csc(Nc3cccc4ccccc34)n2)cc1)N1CCCC1 | 5.29%
Cc1csc(NC(=O)C(=O)c2cc(C)n(-c3ccc(C)c(C)c3)c2C)n1 | 2.32%
O=C(NC1CCCCCC1)C1CCCN(S(=O)(=O)c2ccc3nc(O)ccc3c2)C1 (centres unmarked) | -7.74%
COc1nc2ccccc2cc1-c1noc(-c2ccc(Cl)cc2)n1 | -2.62%
CC(C)CN1CC23C=CC(O2)C(C(=O)O)C3C1=O (centres unmarked) | -2.98%
CCC1(CC)C(=O)NC(=O)N=C1Nc1cccc(Cl)c1 | 2.24%
Nc1nnc(CC2=CCCCC2)s1 | 4.26%
CCN1CCC(N(Cc2ccco2)C(=O)NC2CCCC2)CC1 | 1.46%
CCNS(=O)(=O)c1ccc(CCC(=O)N2CCN(C(=O)OCC)CC2)cc1 | -3.75%
Cc1ccc(S(=O)(=O)NCC(C)NC(=O)CN2CCOCC2)cc1 (centres unmarked) | -3.13%
Cc1nc2c(c(C)c1CCC(=O)N1CC=C(c3ccccc3)CC1)c(=O)n(C)c(=O)n2C | 5.32%
Cn1c(=O)c2c(-c3ccccc3Br)n(CC(=O)c3ccccc3)cc2n(C)c1=O | 0.758%
COc1cccc(N/C=C/C(=O)c2ccc(OC)c(OC)c2)c1 | 0.851%
CCC1CCCCN1CCCNC(=O)c1ccc(CSc2nc3ccncc3[nH]2)cc1 (centres unmarked) | 1.8%
COC(=O)/C(=C1/Oc2c(C)cc(C)cc2S1)C(F)(F)F | -7.23%
O=C1c2cccnc2C(=O)N1Cc1ccccc1 | -2.88%
O=C(NC1CCCc2ccccc21)c1ccc(CNc2c(N3CCOCC3)c(=O)c2=O)cc1 (centres unmarked) | 1.15%
Cc1ccc2nc3c(cc(C#N)c(=O)n3Cc3ccccc3Cl)c(=O)n2c1 | -4.07%

Structure (SMILES) | % Inhibition @ 10 uM
CCCC(=O)Nc1ccc2c(c1)ncn2C1CCCCC1 | 3.8%
O=C(NCc1ccco1)c1ccc(S(=O)(=O)N2CCCCC2)cc1 | 0.361%
O=C1C2C3C=CC(C2C(=O)N1c1ccc(F)cc1)C1C(=O)N(c2ccc(F)cc2)C(=O)C31 (centres unmarked) | 6.65%
COc1cc(C)nc(-c2ccccc2O)n1 | -3.77%
Cc1nc2nc(NC(=O)C3CCCCC3)nn2c(O)c1Cc1ccccc1 | -1.31%
COc1ccc(C2OC(=O)C(O)=C2C(=O)c2ccc(Cl)cc2)cc1 (centres unmarked) | -1.47%
CCC(Cc1ccccc1)NC(=O)CCn1cccc1 (centres unmarked) | -2.45%
CN1CCc2nc(S)c(C#N)c(/C=C/c3ccccc3)c2C1 | 3.39%
CSC1=C(C#N)C(c2ccccc2Cl)C2=C(O)CCCC2=N1 (centres unmarked) | 2.3%
O=C(NCCCN1CCOCC1)c1csc2c1CCCC2 | 5.09%
O=C(NCc1ccc(F)cc1)C1CCC(CNS(=O)(=O)c2cccs2)CC1 (centres unmarked) | -6.57%
CCCCN1C(=O)c2ccc(C(=O)Nc3cc(OC)c(OC)cc3C(=O)O)cc2C1=O | -0.478%
CN(C)C(C)(C)c1nnnn1C(/C=C\c1ccc(Cl)cc1Cl)C(C)(C)C (centres unmarked) | -4.16%
O=C(NC1CCCCC1)c1cnn2c1NC(c1ccccc1)CC2C(F)(F)F (centres unmarked) | 8.36%
OCC1CCCCN1Cc1cc(Br)cs1 (centres unmarked) | 0.0035%
COc1cc(CCC(=O)Nc2nnc(C)s2)cc(OC)c1OC | 0.238%
Cc1ccnc(NC(=O)c2ccc(Cl)c(Cl)c2)c1 | 0.408%
COC(=O)c1sc2nc3c(cc2c1N)CN(C(C)C)CC3 | -1.08%
CC12CC3CC(N)(C1)CC(CO)(C3)C2 (centres unmarked) | -1.78%
CC1C(C#N)=C(SCC(=O)c2ccc(Cl)cc2)N=C2CC(C)(C)CC(O)=C21 (centres unmarked) | 45.5%
COc1cc(CNC2CCCCCC2)cc2c1OCO2 | 3.44%
O=C(Cn1ccc2ccccc2c1=O)NCCc1ccc(Cl)cc1 | 1.91%
CCOC(=O)C1=C(CNCc2cccs2)NC(=O)NC1c1ccc(C)cc1 (centres unmarked) | -1.03%
